Source: PMC4336329 (PLoS ONE, 2015)
In all, about 310,000 compounds went through this assay and about 14,000 (4.5%) showed an effect of 50% or more. Effects have a minus sign here. Some of the results follow.

These compounds were tested against human ether-à-go-go-related gene (hERG) potassium channel (human, UniProt Q12809) (assay: primary screen, population patch clamp on CHO cells stably expressing hERG).
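Also: peak tail current of the secondary pulse compared with the same well before compound.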

Chain of human ether-à-go-go-related gene (hERG) potassium channel (Q12809 whole entry, looked up): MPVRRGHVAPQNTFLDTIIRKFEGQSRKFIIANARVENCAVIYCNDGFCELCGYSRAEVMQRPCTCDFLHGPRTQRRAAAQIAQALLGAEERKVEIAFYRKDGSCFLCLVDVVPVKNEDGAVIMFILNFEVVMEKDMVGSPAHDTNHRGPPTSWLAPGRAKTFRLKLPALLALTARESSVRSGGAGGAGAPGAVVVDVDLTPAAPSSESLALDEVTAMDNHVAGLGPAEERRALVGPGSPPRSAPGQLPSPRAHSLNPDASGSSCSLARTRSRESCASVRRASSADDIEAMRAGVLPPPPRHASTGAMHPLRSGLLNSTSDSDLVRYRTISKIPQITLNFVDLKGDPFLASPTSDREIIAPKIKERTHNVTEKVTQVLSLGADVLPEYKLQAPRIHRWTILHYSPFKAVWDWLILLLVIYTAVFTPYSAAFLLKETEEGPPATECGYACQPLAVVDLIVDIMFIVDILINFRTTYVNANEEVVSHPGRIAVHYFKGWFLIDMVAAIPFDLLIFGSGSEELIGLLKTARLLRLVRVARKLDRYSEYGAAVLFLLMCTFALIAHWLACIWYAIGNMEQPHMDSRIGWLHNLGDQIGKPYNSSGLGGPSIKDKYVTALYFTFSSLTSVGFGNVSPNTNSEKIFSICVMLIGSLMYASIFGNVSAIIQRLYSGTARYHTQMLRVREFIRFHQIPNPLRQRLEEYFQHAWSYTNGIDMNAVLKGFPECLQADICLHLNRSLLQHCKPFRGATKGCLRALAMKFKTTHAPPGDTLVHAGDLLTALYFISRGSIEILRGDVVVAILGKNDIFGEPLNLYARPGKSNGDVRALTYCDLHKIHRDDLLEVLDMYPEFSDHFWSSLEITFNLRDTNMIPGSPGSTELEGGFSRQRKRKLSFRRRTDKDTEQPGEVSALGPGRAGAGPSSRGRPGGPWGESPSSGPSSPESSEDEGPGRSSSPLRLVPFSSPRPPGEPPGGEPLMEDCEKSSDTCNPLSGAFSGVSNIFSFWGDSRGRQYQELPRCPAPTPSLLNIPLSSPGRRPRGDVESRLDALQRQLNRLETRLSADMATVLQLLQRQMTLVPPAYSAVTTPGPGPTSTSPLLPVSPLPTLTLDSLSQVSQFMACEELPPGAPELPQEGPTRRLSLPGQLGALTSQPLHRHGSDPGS

Row | Compound | hERG current change (%, negative = inhibition) at 10uM
1 | COc1ccc(-c2sccc2C(C)C(=O)O)cc1 (centres unmarked) | 11.5%
2 | COC(=O)c1sccc1NC(=S)N1CCCC(C)C1 (centres unmarked) | 14.6%
3 | CCOC(=O)c1cc(C(=O)OCC)c2ccccn2c1=O | -2.57%
4 | CC1CN(C(=O)COc2ccc3ccccc3c2Br)CC(C)O1 (centres unmarked) | -19.5%
5 | COc1ccccc1CNC(=O)CC1C(=O)NCCN1C1Cc2ccccc2C1 (centres unmarked) | 6.85%
6 | CCc1ccc(N2C(=O)CC(NNc3nc4ccccc4s3)C2=O)cc1 (centres unmarked) | -2.9%
7 | O=C(Nc1ccc(Oc2cccnc2)cc1)c1ccccc1F | -24.6%
8 | Cc1ccc(NNC(=O)Nc2ccc(Cl)cc2)nn1 | 11.5%
9 | COc1ccc(N2CCOCC2)c(NC(=O)c2cccs2)c1 | -6.22%
10 | COc1ccccc1NS(=O)(=O)c1cc(C(=O)NCC(c2cccs2)N2CCOCC2)ccc1C (centres unmarked) | -13%
11 | Cc1ccc(OCCC(=O)OCC(=O)NC(=O)c2ccccc2)cc1 | 7.4%
12 | Cc1ccc(S(=O)(=O)N2CCC(C(=O)N[C@H](C(=O)NCc3ccco3)C(C)C)CC2)cc1 | -15.9%
13 | O=C(NCc1ccco1)C(=O)NCC1OCCN1S(=O)(=O)c1ccccc1 (centres unmarked) | 1.96%
14 | Oc1c(C=C2N=c3ccccc3=N2)sc(=S)n1-c1ccccc1 | 21.4%
15 | COc1ccccc1NC(=O)Nc1c(C)n(C)n(-c2ccccc2)c1=O | -10.3%
16 | Cc1onc(-c2ccccc2Cl)c1C(=O)NCc1ccco1 | 4.35%
17 | O=C(COC(=O)c1cccnc1Cl)Nc1ncc(Cl)cc1Cl | 19.1%
18 | Cc1ccc(NC(=O)c2cc(C)on2)cc1 | 7.68%
19 | COc1ccc(C2CC(c3ccc(OC)cc3)n3nc(N)nc3N2)cc1 (centres unmarked) | 10.5%
20 | COc1ccc(S(=O)(=O)N2CCN(C(=O)CC3CC4CCC3C4)CC2)cc1 (centres unmarked) | 9.37%
21 | COCCNC(=O)/C(C#N)=C/c1cccc(/C=C(\C#N)C(=O)NCCOC)c1 | 0.707%
22 | Cc1cccc(C)c1NC(=S)N(CCCN1CCN(C)CC1)Cc1cccs1 | -47.8%
23 | O=C(CSc1nc2[nH]ncc2c(=O)n1-c1ccccc1)N1CCCc2ccccc21 | -24.6%

Row | Compound | hERG current change (%, negative = inhibition) at 10uM
24 | O=C(N1CCC(n2nc(-c3ccccc3)oc2=O)CC1)C1(c2ccc(Cl)cc2)CC1 | -7.07%
25 | CN(C)CCOc1nc(-c2ccccc2)nc2c1oc1ccccc12 | -44.7%
26 | COCCCNC(=O)c1ccc2c(=O)n(Cc3ccccc3OC)c(=S)[nH]c2c1 | 6.43%
27 | CCN(CC)S(=O)(=O)c1ccc(OC)c(NC(=O)c2cc([N+](=O)[O-])ccc2Cl)c1 | 11.4%
28 | Cc1cccc(N2CN(Cc3cccnc3)CNC2=S)c1 | -3.28%
29 | CCOc1ccc(N2CC(C(=O)NCCC3=CCCCC3)CC2=O)cc1 (centres unmarked) | -11.1%
30 | COc1ccccc1CNC(=O)c1ccc2ccccc2n1 | -12.1%
31 | Cc1sc(NC(=O)c2cccc([N+](=O)[O-])c2)c(C(N)=O)c1-c1ccc(C(C)(C)C)cc1 | -3.34%
32 | CCN(CC)CCNC(=O)Cn1nc(-c2ccccc2)c2ccccc2c1=O | -31%
33 | CCOc1ccc(NC(=O)CN2C(=O)COc3ccc(Cl)cc32)cc1 | 0.412%
34 | Fc1ccc(-n2c(-c3cccs3)nc3nc4ccccc4nc32)cc1 | 9.07%
35 | COc1ccc(-c2cc(C)no2)cc1S(=O)(=O)Nc1ccc(NC(C)=O)cc1 | 14.7%
36 | O=C(CCSCCc1ccccn1)Nc1c(F)cc(F)cc1Br | 8.22%
37 | O=C1CCCC2=C1C1(CCCC1)N=C(Nc1nc3ccccc3s1)N2 | -7.12%
38 | COc1ccc(NC(=O)CCn2cc(C)c3ccccc32)cc1 | 15.5%
39 | O=C1CC(c2ccco2)Cc2c1cnn2-c1nc2ccccc2s1 (centres unmarked) | 0.542%
40 | COCCNC(=O)C(=O)NNC(=O)c1ccccc1OC | 16.2%
41 | C(=C\c1nnc(-c2cccs2)o1)/c1ccccc1 | -9.22%
42 | CC1(C)CC(=O)c2cnc(N3CCc4ccccc4C3)nc2C1 | 7.48%
43 | Brc1ccc(OCCn2ccnc2)cc1 | -4.26%
44 | COc1cccc(N2CCN(CC(=O)Nc3ccccc3C(=O)NCCc3ccccc3)CC2)c1 | 89.9%
45 | Cn1cc(/C=C2\SC(=S)N(NC(=O)c3ccccc3)C2=O)c2ccccc21 | 10.6%
46 | Cc1nn(C(C)C(=O)O)c(=O)c2c1sc1ccccc12 (centres unmarked) | 8.68%

Row | Compound | hERG current change (%, negative = inhibition) at 10uM
47 | COc1ccc(S(=O)(=O)N2CCN(CC3CC=CCC3)CC2)cc1 (centres unmarked) | -24.7%
48 | OC1(c2ccc(Cl)cc2)CCN(Cc2nc(-c3cnccn3)no2)CC1 | -1.35%
49 | Cc1ccc(NC(=O)c2ccccc2OCc2ccc([N+](=O)[O-])cc2)nc1 | -0.0291%
50 | Cc1ccc(NC(=O)Cc2c(Cl)cccc2Cl)cc1S(=O)(=O)N(C)C | 18.1%
51 | CC(C)(C)NC(=O)CN(Cc1ccc2c(c1)OCO2)C(=O)CNS(=O)(=O)c1ccccc1 | 15.8%
52 | CC(C)Oc1ccc(S(=O)(=O)N2CCOCC2)cc1NC(=O)Cc1c(F)cccc1Cl | 17.7%
53 | CS(=O)(=O)N1CCN(c2ccc([N+](=O)[O-])c(SCc3ccco3)c2)CC1 | -7.13%
54 | Cn1c(CSc2nc3ccc(Br)cc3[nH]2)nc2ccccc21 | -6.66%
55 | Oc1ccc(Cl)cc1-c1cc(C(F)(F)C(F)F)nc(-c2ccccc2)n1 | 6.07%
56 | CCOc1ccc(N2CC(C(=O)Nc3cccc(S(=O)(=O)N4CCCC4)c3)CC2=O)cc1 (centres unmarked) | -24.8%
57 | CCc1ccc2c(c1)cc(C)c1nnc(SCC(=O)Nc3cc(OC)c(OC)cc3C(=O)O)n12 | 5.98%
58 | COc1ccc(NC(=O)c2ccc3c(=O)n(Cc4ccco4)c(=S)[nH]c3c2)c(OC)c1 | 5.49%
59 | Cc1ccc(N=Nc2c(N)nn3c(N)c(C#N)c(C)nc23)cc1 | 15.3%
60 | COc1ccc(OC)c(C2NC(=O)N(C)C(C)=C2C(=O)OCc2ccccc2)c1 (centres unmarked) | -8.64%
61 | COCCn1c(C)cc(/C=N/NC(=O)c2cccnc2)c1C | 41.5%
62 | CCN(CC)C(=O)Nc1ccccc1C | 16.9%
63 | COc1ccc(C(=O)COC(=O)Cn2cnc3ccccc3c2=O)c(OC)c1 | -11.2%
64 | O=C(O)CC1(CC(=O)NCc2ccncc2)CCCCC1 | 4.85%
65 | CCOCCCNCc1cc(Cl)cc(Cl)c1OCC.Cl | -32%
66 | CCOC(=O)Cn1cc(/C=N/NC(=O)CC#N)c2ccccc21 | 10.4%
67 | Cc1c(CN2CC[C@@H](N3CCN(c4ccccn4)CC3)[C@H](O)C2)[nH]c2ccc(F)cc12 | -60.9%
68 | Cc1nc(SCC(=O)NC(=O)NC(C)C)nc(C)c1C | 17.4%
69 | COc1ccc(CCNC(=O)C2CCC(=O)N(C3CC3)C2)c(OC)c1 (centres unmarked) | 7.03%

Row | Compound | hERG current change (%, negative = inhibition) at 10uM
70 | CCc1cc(=O)n2[nH]c(C)c(-c3ccc(OC)cc3)c2n1 | 1.39%
71 | COc1ccccc1-c1nnc(SCC(=O)NC2CCS(=O)(=O)C2)n1N (centres unmarked) | 9.79%
72 | CCC(=O)Nc1ccc(NC(=O)c2cccc(OC)c2)nc1 | 1.09%
73 | O=C(Sc1nnc(-c2ccccc2)o1)N1c2ccccc2Sc2ccccc21 | 4.95%
74 | O=C(CCc1ccccc1)NC1(Cc2ccccc2)CCN(CCc2cccs2)C1=O (centres unmarked) | -20.4%
75 | Cn1cccc1CC(=O)N/N=C\c1c2ccccc2cc2ccccc12 | -3.92%
76 | CC(NC(=O)C(=O)N/N=C\c1ccc([N+](=O)[O-])cc1)c1ccccc1 (centres unmarked) | 18.2%
77 | CCn1c(C(O)c2cc(OC)c(OC)c(OC)c2)nc2ccccc21 (centres unmarked) | 2.8%
78 | C/C(CC(=O)Nc1ccc(N(C)C)cc1)=N\NC(=O)Cc1csc(N)n1 | 0.601%
79 | C=CCn1c(SCC)nc2sc3c(c2c1=O)CCc1ccccc1-3 | 2.6%
80 | O=c1[nH][nH]c(=O)n1-c1ccccc1 | 10.1%
81 | CCn1c(COc2ccc(Cl)cc2)nnc1SCC(=O)Nc1ccc2c(c1)OCO2 | 3.98%
82 | COc1cccc(/C=C2\SC(N3CCC(C)CC3)=NC2=O)c1OC | -6.29%
83 | CC(C)(CO)C(O)C(=O)NCCCO (centres unmarked) | 11.5%
84 | O=C(NCc1ccc(F)cc1)c1ccc(CS(=O)(=O)c2ccc(Br)cc2)o1 | -17.3%
85 | COc1ccc(N2CCN(S(=O)(=O)c3cccc4nsnc34)CC2)cc1 | 3.48%
86 | O=C(Nc1ccc(Oc2ccsc2C(=O)O)cc1)c1ccccc1F | 10.2%
87 | N=c1c(C(=O)NCc2ccc(F)cc2)cc2c(=O)n3ccccc3nc2n1Cc1cccnc1 | -76.2%
88 | N#Cc1cc2c(nc1SCC(=O)Nc1nccs1)CCCCC2 | 0.217%
89 | CCOC(=O)c1sc(NC(=O)CSc2n[nH]c(-c3ccc(Cl)cc3Cl)n2)c(C#N)c1C | -0.878%
